Among the data in the antibiotic and cytotoxicity screens of Wong et al. (2023) are cytotoxicity call and growth inhibition call values, retold here.

The list shows a part of the results.

Assay [1] concerns HSkMC (human skeletal muscle cells). Nature of the assay: cytotoxicity call (relative viability < 0.9). To be noted: 10 µM.
The subject of assay [2] is HepG2. Nature of the assay: cytotoxicity call (relative viability < 0.9). To be noted: 10 µM.
In assay [3] the test system is S. aureus RN4220. The assay can be described thus: growth inhibition call (relative growth <= 0.2). The following applies: 50 µM.

As for `COC(=O)C1=C2CC[C@@H](COC(=O)NCCCCCC(=O)NO)NC(=O)N[C@H](Cc3ccccc3)c3cn(nn3)C[C@H](Cc3ccccc3)NC(=O)c3oc(c(C(=O)OC)c3C(=O)OC)CC[C@@H](COC(=O)NCCCCCC(=O)NO)NC(=O)N[C@H](Cc3ccccc3)c3cn(nn3)C[C@H](Cc3ccccc3)NC(=O)C(=C1C(=O)OC)O2`, the cytotoxicity call in assay [1] and in assay [2] was “inactive” throughout. Moreover, the growth inhibition call in assay [3] is “inactive”.

`CN(C)CC(=O)N[C@@H]1CC[C@@H](CCNC(=O)C2CCC2)O[C@H]1CO`: the cytotoxicity call in assay [1] and in assay [2] was “inactive” in each case. For the same compound, the growth inhibition call in assay [3] was “inactive”.

Regarding `C[C@H]1CN([C@@H](C)CO)C(=O)c2cccc(NS(C)(=O)=O)c2O[C@H]1CN(C)C(=O)Nc1ccccc1`, the cytotoxicity call in assay [1] and in assay [2] was “inactive” in each case. For the same compound, the growth inhibition call in assay [3] is “inactive”.

On to `C[C@@H]1CN([C@H](C)CO)C(=O)c2cc(NC(=O)Nc3ccc(C(F)(F)F)cc3)ccc2O[C@@H](C)CCCCO[C@H]1CN(C)S(=O)(=O)c1ccccc1`, for which the cytotoxicity call in assay [1] and in assay [2] was “inactive” in each case. Further, the growth inhibition call in assay [3] was “inactive”.

`Cc1noc(C)c1NC(=O)Nc1ccc2c(c1)C(=O)N([C@@H](C)CO)C[C@H](C)[C@@H](CN(C)S(=O)(=O)c1ccccc1)O2`: the cytotoxicity call in assay [1] and in assay [2] was “inactive” each time. In addition, the growth inhibition call in assay [3] is “inactive”.

On to `O=C(C[C@H]1CC[C@@H]2[C@H](COC[C@@H](O)CN2Cc2cc(F)ccc2F)O1)N[C@H]1CCN(Cc2ccccc2)C1`, for which, in assay [1], the cytotoxicity call was “inactive”. Further, the cytotoxicity call in assay [2] is “active”. Also, the growth inhibition call in assay [3] is “inactive”.

For the compound `COc1ccc(CN(C)C[C@@H]2Oc3c(NS(=O)(=O)c4c(C)noc4C)cccc3C(=O)N([C@H](C)CO)C[C@@H]2C)cc1`, the cytotoxicity call in assay [1] and in assay [2] was “inactive” in each case. In addition, the growth inhibition call in assay [3] was “inactive”.

Turning to `C[C@@H]1CN([C@@H](C)CO)C(=O)c2cc(NC(=O)NC3CCCCC3)ccc2O[C@@H]1CN(C)C(=O)Nc1cccc2ccccc12`, in assay [1], the cytotoxicity call is “active”. For the same compound, the cytotoxicity call in assay [2] is “inactive”. Besides, in assay [3], the growth inhibition call is “inactive”.
